According to ChEMBL document CHEMBL4393708, “Pyridinylimidazoles as dual glycogen synthase kinase 3β/p38α mitogen-activated protein kinase inhibitors” (Eur J Med Chem, 2019):
pIC50: −log10 of the molar value.

What was measured:
[1] = Metabolic stability in human liver microsomes assessed as parent compound remaining after 10 mins by LC-MS analysis relative to control; type: ADME, Microsome; conditions: read-out: Stability
[2] = molecular target: Serine/threonine-protein kinase MARK1 (Homo sapiens) (UniProt Q9P0L2); experiment: Inhibition of human recombinant MARK1 at 1 uM using Ulight-RRRSLLE as substrate measured after 30 mins in presence of ATP by LANCE assay relative to control
Sequence of UniProt Q9P0L2 (Q9P0L2 whole entry, looked up): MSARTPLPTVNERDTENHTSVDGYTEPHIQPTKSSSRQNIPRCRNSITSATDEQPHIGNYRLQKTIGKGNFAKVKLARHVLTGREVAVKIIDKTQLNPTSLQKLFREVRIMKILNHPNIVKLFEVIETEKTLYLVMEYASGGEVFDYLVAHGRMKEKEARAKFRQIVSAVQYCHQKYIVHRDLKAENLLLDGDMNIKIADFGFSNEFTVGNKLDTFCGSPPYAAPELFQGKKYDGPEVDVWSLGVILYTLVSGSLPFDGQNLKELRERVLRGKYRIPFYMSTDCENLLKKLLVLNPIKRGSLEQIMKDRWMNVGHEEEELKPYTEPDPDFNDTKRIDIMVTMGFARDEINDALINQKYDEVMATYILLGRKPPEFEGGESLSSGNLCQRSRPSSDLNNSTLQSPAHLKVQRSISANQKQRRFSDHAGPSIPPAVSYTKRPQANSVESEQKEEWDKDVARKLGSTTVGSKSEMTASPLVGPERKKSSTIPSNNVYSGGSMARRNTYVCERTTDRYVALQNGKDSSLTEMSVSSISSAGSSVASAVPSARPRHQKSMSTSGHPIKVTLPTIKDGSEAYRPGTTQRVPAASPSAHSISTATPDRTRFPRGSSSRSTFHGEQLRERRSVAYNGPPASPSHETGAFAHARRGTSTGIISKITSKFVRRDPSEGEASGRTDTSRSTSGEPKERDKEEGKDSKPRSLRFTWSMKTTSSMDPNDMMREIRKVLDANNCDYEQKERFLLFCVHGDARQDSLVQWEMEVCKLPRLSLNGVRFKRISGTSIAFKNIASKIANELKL
Procedure, shortened: (§1)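 Kinase panel run by an outside provider (Eurofins Cerep) in a LANCE assay, single test concentration of 1 µM, results as percent inhibition.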

[3] = molecular target: Epidermal growth factor receptor (Homo sapiens) (UniProt P00533); experiment: Inhibition of human recombinant EGFR at 1 uM using Ulight-CAGAGAIETDKEYYTVKD as substrate measured after 15 mins in presence of ATP by LANCE assay relative to control; procedure, shortened: as §1
Sequence of UniProt P00533 (P00533 whole entry): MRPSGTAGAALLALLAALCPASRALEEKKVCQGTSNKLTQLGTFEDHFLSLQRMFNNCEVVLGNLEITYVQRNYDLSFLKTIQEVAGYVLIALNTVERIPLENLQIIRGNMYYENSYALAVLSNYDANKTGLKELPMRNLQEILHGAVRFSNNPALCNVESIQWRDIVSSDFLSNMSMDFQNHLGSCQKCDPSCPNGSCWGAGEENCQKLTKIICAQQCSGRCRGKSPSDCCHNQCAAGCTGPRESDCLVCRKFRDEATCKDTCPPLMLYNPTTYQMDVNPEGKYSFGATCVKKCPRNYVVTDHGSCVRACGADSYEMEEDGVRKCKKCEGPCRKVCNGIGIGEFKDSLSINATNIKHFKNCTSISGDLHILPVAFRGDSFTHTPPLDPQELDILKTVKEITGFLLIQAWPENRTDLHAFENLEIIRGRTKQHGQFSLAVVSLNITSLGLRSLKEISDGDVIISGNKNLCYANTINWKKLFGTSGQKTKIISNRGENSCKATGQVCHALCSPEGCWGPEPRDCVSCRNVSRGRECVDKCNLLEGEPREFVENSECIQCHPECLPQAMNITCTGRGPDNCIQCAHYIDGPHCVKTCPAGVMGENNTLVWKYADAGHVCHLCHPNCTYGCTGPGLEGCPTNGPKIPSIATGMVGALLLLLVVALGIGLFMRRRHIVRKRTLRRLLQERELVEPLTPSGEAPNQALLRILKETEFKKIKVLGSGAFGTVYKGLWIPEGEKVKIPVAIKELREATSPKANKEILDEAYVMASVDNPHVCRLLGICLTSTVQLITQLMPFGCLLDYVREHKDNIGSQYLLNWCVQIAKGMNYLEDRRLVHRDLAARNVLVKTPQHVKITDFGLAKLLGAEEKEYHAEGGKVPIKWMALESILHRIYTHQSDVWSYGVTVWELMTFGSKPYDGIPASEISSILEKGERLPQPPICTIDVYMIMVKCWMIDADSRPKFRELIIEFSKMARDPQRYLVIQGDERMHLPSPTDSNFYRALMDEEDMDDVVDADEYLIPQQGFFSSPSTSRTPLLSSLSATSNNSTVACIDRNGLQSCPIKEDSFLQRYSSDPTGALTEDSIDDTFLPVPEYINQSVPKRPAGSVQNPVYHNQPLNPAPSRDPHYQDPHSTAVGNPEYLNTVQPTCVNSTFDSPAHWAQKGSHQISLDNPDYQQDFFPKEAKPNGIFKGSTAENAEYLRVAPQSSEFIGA

[4] = Metabolic stability in human liver microsomes assessed as parent compound remaining after 30 mins by LC-MS analysis relative to control; type: ADME, Microsome; conditions: read-out: Stability
[5] = molecular target: Tyrosine-protein kinase Lck (Homo sapiens) (UniProt P06239); experiment: Inhibition of human recombinant LCK at 1 uM using Ulight-Poly GAT[EAY(1:1:1)]n as substrate measured after 10 mins in presence of ATP by LANCE assay relative to control; procedure, shortened: as §1
Sequence of UniProt P06239 (P06239 whole entry, looked up): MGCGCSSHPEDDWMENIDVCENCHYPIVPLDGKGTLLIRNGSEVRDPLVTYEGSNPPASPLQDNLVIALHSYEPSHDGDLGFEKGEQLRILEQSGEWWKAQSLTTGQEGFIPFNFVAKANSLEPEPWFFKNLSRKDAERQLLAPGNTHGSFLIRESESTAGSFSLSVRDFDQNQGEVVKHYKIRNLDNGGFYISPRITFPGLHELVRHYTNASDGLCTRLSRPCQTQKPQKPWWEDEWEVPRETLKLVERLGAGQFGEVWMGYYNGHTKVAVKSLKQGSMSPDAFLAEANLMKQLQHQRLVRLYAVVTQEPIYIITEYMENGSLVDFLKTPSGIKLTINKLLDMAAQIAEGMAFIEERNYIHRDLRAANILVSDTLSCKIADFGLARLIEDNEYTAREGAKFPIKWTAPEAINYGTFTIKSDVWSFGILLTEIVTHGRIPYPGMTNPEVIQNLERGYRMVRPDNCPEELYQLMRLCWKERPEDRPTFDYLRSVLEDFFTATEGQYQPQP

[6] = molecular target: T1, Serine/threonine-protein kinase TAO2 (Homo sapiens) (UniProt Q9UL54); experiment: Inhibition of human recombinant TAO2 at 1 uM using Ulight-FLGFTYVAP as substrate measured after 60 mins in presence of ATP by LANCE assay relative to control; procedure, shortened: as §1
T1 sequence (whole entry): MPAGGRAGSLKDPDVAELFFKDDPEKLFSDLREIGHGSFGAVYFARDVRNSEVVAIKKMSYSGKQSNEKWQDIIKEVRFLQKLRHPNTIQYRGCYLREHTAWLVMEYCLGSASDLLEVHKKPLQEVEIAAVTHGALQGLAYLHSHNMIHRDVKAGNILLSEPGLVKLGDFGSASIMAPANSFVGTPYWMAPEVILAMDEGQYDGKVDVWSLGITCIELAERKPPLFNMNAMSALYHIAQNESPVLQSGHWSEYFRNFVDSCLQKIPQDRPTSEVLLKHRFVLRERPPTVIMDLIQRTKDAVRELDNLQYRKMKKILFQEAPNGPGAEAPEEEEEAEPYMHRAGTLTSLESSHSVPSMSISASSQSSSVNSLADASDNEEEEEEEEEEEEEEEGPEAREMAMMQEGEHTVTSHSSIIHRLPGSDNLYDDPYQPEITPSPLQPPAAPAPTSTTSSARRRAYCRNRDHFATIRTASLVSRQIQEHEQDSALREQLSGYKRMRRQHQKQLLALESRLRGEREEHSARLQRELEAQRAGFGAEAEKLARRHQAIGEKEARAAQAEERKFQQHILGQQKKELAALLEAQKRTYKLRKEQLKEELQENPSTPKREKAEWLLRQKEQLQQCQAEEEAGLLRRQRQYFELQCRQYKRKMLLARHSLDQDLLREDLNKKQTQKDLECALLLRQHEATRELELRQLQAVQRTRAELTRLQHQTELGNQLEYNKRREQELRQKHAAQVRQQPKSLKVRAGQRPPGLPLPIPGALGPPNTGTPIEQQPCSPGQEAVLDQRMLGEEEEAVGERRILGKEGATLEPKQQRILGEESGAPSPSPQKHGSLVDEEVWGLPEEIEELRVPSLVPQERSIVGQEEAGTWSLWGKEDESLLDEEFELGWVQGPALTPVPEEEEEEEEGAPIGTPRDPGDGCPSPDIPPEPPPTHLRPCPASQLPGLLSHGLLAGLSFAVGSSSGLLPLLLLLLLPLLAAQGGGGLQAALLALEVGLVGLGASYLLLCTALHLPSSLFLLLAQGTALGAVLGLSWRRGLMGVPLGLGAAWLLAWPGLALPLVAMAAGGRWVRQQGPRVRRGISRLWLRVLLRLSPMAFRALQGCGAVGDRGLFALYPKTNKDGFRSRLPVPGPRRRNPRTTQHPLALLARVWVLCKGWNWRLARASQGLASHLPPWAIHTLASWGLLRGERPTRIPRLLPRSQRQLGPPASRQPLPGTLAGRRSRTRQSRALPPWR

[7] = molecular target: Ephrin type-A receptor 2 (Homo sapiens) (UniProt P29317); experiment: Inhibition of human recombinant EPHA2 at 1 uM using Ulight-TK peptide as substrate measured after 30 mins in presence of ATP by LANCE assay relative to control; procedure, shortened: as §1
Sequence of UniProt P29317 (P29317 whole entry): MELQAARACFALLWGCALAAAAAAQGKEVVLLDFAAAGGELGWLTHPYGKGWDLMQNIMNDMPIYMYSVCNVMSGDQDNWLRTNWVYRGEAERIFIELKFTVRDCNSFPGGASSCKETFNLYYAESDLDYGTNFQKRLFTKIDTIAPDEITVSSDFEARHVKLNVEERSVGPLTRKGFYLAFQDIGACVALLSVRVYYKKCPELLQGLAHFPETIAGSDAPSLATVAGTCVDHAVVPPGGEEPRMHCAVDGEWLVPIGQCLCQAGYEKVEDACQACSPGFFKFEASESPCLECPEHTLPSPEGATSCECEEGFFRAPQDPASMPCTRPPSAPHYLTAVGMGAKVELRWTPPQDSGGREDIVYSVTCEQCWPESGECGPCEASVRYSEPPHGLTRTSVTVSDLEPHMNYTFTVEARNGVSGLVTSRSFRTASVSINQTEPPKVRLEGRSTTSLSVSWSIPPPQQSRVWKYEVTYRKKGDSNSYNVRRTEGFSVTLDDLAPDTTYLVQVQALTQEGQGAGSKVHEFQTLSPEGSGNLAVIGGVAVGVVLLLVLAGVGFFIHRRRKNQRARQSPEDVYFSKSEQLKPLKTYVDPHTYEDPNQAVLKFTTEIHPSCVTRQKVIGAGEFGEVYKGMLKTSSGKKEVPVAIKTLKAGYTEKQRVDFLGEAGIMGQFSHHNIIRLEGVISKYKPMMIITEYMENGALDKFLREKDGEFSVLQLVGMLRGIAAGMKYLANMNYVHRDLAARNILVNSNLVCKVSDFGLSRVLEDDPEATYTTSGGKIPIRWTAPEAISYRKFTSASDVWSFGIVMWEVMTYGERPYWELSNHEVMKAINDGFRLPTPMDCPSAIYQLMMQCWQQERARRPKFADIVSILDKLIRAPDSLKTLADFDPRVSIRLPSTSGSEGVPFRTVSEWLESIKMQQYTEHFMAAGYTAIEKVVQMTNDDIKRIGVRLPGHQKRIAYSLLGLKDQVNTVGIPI

[8] = molecular target: T2, Serine/threonine-protein kinase Sgk1 (Homo sapiens) (UniProt O00141); experiment: Inhibition of human recombinant SGK1 at 1 uM using Ulight-RRRSLLE as substrate measured after 30 mins in presence of ATP by LANCE assay relative to control; procedure, shortened: as §1
T2 sequence (whole entry): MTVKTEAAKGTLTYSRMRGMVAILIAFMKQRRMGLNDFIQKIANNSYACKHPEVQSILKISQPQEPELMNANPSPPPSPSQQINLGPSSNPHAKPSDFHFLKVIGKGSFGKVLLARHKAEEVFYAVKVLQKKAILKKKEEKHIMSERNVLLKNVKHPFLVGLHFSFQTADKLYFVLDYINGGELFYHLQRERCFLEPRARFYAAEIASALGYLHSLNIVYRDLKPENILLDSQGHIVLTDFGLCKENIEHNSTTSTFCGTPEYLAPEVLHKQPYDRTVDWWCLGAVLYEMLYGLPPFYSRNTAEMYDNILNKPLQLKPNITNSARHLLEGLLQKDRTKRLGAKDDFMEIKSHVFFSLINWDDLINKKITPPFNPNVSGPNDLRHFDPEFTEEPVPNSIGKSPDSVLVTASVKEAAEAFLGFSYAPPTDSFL

[9] = molecular target: T3, 3-phosphoinositide-dependent protein kinase 1 (Homo sapiens) (UniProt O15530); experiment: Inhibition of human recombinant PDK1 at 1 uM using Ulight-FLGFTYVAP as substrate measured after 90 mins in presence of ATP by LANCE assay relative to control; procedure, shortened: as §1
T3 sequence (whole entry): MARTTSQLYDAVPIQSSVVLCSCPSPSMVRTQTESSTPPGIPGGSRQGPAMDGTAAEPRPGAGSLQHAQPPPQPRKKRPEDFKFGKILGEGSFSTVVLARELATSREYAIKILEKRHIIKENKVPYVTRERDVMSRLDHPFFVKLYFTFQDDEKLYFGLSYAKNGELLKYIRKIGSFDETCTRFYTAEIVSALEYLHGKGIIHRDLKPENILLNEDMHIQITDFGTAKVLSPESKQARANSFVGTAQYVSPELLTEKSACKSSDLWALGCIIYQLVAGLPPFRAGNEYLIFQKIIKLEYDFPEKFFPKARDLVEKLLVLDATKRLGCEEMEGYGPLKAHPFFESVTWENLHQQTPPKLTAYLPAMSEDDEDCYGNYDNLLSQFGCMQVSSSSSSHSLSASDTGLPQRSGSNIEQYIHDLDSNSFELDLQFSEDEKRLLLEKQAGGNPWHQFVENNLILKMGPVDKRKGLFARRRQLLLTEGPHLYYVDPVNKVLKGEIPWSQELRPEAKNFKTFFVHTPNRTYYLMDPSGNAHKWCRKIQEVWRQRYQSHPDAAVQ

[10] = system: Blood; experiment: Inhibition of LPS-induced TNFalpha production in human whole blood preincubated with compound for 15 mins followed by LPS addition measured after 2.5 hrs by ELISA; type: functional, tissue-based
[11] = molecular target: cAMP-dependent protein kinase catalytic subunit alpha (Homo sapiens) (UniProt P17612); experiment: Inhibition of human recombinant PKA at 1 uM using Ulight-RRRSLLE as substrate measured after 10 mins in presence of ATP by LANCE assay relative to control; procedure, shortened: as §1
[12] = molecular target: CYP2D6 (Homo sapiens, UniProt P10635); experiment: Inhibition of human recombinant CYP2D6 expressed in baculovirus infected insect cells using EOMCC as substrate at 10 uM in presence of NADPH by fluorimetric analysis relative to control; type: ADME; conditions: probe EOMCC
[13] = Metabolic stability in human liver microsomes assessed as parent compound remaining after 180 mins by LC-MS analysis relative to control; type: ADME, Microsome; conditions: read-out: Stability
[14] = molecular target: CYP3A4 (Homo sapiens, UniProt P08684); experiment: Inhibition of human recombinant CYP3A4 expressed in baculovirus infected insect cells using BOMR as substrate at 10 uM in presence of NADPH by fluorimetric analysis relative to control; type: ADME; conditions: probe BOMR
Sequence of UniProt P08684 (P08684 whole entry): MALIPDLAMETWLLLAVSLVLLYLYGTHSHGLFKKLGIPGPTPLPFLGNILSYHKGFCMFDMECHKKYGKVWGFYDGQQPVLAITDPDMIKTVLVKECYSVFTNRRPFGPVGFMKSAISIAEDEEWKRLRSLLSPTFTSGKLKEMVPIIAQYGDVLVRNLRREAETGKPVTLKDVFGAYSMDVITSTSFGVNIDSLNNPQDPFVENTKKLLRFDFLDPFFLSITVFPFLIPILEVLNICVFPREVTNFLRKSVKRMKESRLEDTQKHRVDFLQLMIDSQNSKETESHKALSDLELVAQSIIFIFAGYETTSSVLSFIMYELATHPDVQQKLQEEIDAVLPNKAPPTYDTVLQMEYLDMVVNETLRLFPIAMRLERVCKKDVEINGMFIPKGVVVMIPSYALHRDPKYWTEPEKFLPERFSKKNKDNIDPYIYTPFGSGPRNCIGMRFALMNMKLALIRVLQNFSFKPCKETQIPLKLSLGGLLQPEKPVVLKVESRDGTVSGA

[15] = Plasma concentration in RjOrl:Swiss CD-1 mouse at 10 mg/kg, iv administered as single dose measured after 2 hrs by LC-MS analysis; conditions: in vivo
[16] = molecular target: T4, Serine/threonine-protein kinase Chk1 (Homo sapiens) (UniProt O14757); experiment: Inhibition of human recombinant CHK1 at 1 uM using CREBtide as substrate incubated for 30 mins in presence of ATP by LANCE assay relative to control; procedure, shortened: as §1
T4 sequence (whole entry): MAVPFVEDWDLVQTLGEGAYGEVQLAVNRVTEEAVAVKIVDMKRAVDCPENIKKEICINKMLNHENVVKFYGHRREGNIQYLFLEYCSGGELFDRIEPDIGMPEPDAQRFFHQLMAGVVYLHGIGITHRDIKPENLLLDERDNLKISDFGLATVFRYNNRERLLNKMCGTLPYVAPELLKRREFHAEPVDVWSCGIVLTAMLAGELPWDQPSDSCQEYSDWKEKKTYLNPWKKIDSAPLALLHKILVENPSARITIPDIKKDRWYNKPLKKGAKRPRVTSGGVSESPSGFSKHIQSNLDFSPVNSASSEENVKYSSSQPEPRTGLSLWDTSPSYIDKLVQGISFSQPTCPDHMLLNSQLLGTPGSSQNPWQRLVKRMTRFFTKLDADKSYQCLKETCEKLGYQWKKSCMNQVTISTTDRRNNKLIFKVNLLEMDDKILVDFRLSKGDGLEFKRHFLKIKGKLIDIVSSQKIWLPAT

[17] = molecular target: Serine/threonine-protein kinase SIK1 (Homo sapiens) (UniProt P57059); experiment: Inhibition of human recombinant SIK at 1 uM using CREBtide as substrate measured after 90 mins in presence of ATP by LANCE assay relative to control; procedure, shortened: as §1
Sequence of UniProt P57059 (P57059 whole entry): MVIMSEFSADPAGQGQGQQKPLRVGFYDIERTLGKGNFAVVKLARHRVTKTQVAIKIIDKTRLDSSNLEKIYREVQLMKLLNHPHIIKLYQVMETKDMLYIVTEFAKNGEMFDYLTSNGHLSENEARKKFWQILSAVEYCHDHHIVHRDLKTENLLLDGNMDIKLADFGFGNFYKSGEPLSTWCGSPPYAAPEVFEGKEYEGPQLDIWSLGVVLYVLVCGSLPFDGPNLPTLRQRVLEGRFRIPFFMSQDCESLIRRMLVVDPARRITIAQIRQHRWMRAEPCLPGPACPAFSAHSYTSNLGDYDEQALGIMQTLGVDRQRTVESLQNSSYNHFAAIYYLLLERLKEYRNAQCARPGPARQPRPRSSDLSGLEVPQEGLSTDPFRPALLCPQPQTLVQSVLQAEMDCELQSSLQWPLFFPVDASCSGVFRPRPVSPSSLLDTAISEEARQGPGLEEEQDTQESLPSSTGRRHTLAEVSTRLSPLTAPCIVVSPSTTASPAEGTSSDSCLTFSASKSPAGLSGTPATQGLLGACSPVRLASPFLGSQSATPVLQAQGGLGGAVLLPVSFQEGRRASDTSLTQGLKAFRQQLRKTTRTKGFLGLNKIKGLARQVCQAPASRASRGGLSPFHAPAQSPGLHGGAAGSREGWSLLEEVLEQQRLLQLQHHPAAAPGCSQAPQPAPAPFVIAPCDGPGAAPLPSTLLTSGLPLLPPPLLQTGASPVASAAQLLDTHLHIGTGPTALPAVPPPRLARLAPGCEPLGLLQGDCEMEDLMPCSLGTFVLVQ

[18] = molecular target: Cyclin-dependent kinase 2 (Homo sapiens) (UniProt P24941); experiment: Inhibition of human recombinant CDK2 at 1 uM using Ulight-CFFKNIVTPRTPPPSQGK-amide as substrate incubated for 30 mins in presence of ATP by LANCE assay relative to control; procedure, shortened: as §1
[19] = molecular target: Mitogen-activated protein kinase kinase kinase kinase 4 (Homo sapiens) (UniProt O95819); experiment: Inhibition of human recombinant HGK at 1 uM using Ulight-FLGFTYVAP as substrate measured after 90 mins in presence of ATP by LANCE assay relative to control; procedure, shortened: as §1

`CCc1nc(-c2ccc(F)cc2)c(-c2ccnc(NC(=O)C3CC3)c2)[nH]1` showed a remaining at 10 min [1] of 95.4%, an inhibition [2] of -5.3% and an inhibition [3] of 93.3%. It also gave a remaining at 0.5 h [4] of 93.8%, an inhibition [5] of 56.4% and an inhibition [6] of 54.4%. For the same molecule, the inhibition [7] was 95.5%, the inhibition [8] was 8.36% and the inhibition [9] was -5.07%. It also gave a pIC50 [10] of 6.50, an inhibition [11] of -7.3% and an inhibition at 10 µM [12] of 58.3%. The remaining at 3 h [13] was 98.7%, the inhibition at 10 µM [14] was 75.1% and the Concentration [15] was 95 ng/mL. For the same molecule, the inhibition [16] was 9.05%, the inhibition [17] was 8.06% and the inhibition [18] was 11.2%. It also gave an inhibition [19] of 97.9%.
